Reference: paper PMC4336329 (PLoS ONE, 2015)
Out of some 310,000 compounds screened, about 14,000 (4.5%) showed an effect of 50% or more. The effect is printed as a negative number. The list shows a part of the results.

These compounds were tested against human ether-à-go-go-related gene (hERG) potassium channel (human, UniProt Q12809) (assay: primary screen, population patch clamp on CHO cells stably expressing hERG).
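Further: peak tail current of the secondary pulse compared with the same well before compound.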

Chain of human ether-à-go-go-related gene (hERG) potassium channel (Q12809 whole entry, looked up): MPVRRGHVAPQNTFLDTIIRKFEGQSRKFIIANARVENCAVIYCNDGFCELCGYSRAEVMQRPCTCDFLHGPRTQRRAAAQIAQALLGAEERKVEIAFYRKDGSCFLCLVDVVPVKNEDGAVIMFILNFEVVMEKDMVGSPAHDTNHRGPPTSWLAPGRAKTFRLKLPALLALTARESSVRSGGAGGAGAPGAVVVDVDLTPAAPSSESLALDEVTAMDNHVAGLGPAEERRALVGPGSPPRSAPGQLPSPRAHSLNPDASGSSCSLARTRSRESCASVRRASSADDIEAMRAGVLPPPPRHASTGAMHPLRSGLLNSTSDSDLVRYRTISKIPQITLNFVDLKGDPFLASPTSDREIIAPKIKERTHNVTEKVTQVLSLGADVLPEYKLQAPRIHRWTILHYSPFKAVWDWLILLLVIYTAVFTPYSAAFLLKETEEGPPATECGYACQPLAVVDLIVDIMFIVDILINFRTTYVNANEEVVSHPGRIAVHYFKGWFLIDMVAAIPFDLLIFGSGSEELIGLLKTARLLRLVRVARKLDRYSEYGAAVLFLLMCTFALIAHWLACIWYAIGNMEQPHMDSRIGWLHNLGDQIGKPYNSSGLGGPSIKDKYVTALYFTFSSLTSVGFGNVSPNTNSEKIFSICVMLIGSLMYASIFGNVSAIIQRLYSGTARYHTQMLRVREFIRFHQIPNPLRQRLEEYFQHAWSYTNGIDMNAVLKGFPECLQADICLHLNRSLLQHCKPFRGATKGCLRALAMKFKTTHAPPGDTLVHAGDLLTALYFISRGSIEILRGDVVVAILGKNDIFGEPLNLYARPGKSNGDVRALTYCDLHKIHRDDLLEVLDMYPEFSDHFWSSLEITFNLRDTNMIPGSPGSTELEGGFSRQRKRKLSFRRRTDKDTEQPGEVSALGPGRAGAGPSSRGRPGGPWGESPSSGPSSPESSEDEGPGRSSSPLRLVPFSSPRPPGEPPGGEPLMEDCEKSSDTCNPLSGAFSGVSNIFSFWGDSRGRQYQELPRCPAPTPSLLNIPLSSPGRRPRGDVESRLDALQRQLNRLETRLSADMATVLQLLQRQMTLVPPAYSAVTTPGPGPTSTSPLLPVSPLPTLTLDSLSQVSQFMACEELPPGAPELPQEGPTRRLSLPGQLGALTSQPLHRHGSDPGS

SMILES	hERG current change (%, negative = inhibition) at 10uM
Cc1nc(NC(C)c2ccccc2)c2c3c(sc2n1)CCC3 (centres unmarked)	-17.8%
O=C(COC(=O)c1cnccn1)Nc1c(Cl)cc(Cl)cc1Cl	5.3%
COc1ccc(N2CCN(C(=O)Cc3ccc(-n4c(=O)[nH]c5ccccc5c4=O)cc3)CC2)cc1	-5.16%
NS(=O)(=O)c1ccc(NS(=O)(=O)c2ccc(NC(=O)c3ccc(-c4ccccc4)cc3)cc2)cc1	5.46%
Cc1ccc(S(=O)(=O)N2CCN(C(=O)Cc3ccsc3)CC2)c(C)c1	-38.5%
C=CCOc1ccc(-c2nc3c(c(=O)[nH]c(=O)n3CCCC)n2C)cc1Br	-11.5%
CCOc1ccc(CCNC(=O)c2ccc(CS(=O)Cc3ccccc3Cl)o2)cc1 (centres unmarked)	-19%
O=C(NCC(c1ccco1)N1CCc2ccccc21)C(=O)Nc1ccccc1F (centres unmarked)	-28.5%
Nc1nonc1-n1nnc(C(=O)N/N=C/c2cccc(F)c2)c1-c1ccc2c(c1)OCO2	8.77%
O=C(NCc1cccs1)c1cc(S(=O)(=O)N2CCOCC2)c(Cl)cc1Cl	-81.6%
O=c1cc(O)c2sc(Nc3ccc(Cl)c(F)c3)nc2[nH]1	13.5%
COc1cccc(CC2(CO)CCCN(CC3=Cc4cc(Cl)ccc4OC3)C2)c1 (centres unmarked)	-7.49%
O=C(NC1CC2CCCC(C1)N2S(=O)(=O)c1ccccc1)c1ccco1 (centres unmarked)	1.75%
O=C(COc1cc(F)ccc1[N+](=O)[O-])Nc1cccc(Br)c1	8.55%
CCCNC(=O)Cc1c(C)n(C(=O)c2ccc(Cl)cc2)c2ccc(OC)cc12	14.6%
CC(=O)N/C(=C\c1ccccc1)C(=O)OC/C=C/c1ccccc1	-1.02%
Nc1nc2nccc(-c3ccc(Cl)cc3)n2n1	-1.69%
Cn1c(=O)c2c(ncn2CC(=O)N/N=C/C=C/c2ccccc2[N+](=O)[O-])n(C)c1=O	2.08%
CN(C)C1(CNCC(O)c2ccccc2)CCCCC1.O=C(O)C(=O)O (centres unmarked)	5.66%

SMILES	hERG current change (%, negative = inhibition) at 10uM
CCOC(=O)C(C)Sc1ncc(-c2ccc(Cl)cc2)cn1 (centres unmarked)	-37.5%
O=[N+]([O-])c1ccc2c(c1Nc1ccccc1)=NC1(CCCCC1)N=2	8.2%
CNC[C@H](O)c1cccc(O)c1.Cl	13.8%
CC1(C)C2CC=C(/C=N/n3cnnc3)C1C2 (centres unmarked)	-15.4%
N#CC1=C(N)Oc2cc(N)ccc2C1c1ccc(Cl)cc1 (centres unmarked)	9.39%
CSc1sc(C#N)c2c1/C(=N\O)CCC2	16.2%
Cc1cc(C)cc(OCC(=O)NC2=NCCS2)c1	9.56%
COc1cc(/C=C/C(=O)c2ccc3c(c2)OCO3)cc(OC)c1OC	6.73%
Cc1ccc(-c2ccnc(-c3ccc(O)cc3)n2)cc1	13.4%
CC(C)CCN1C(=O)c2ccc(C(=O)Nc3ccccc3C(=O)O)cc2C1=O	39.1%
CN1C(=O)c2ccccc2N(C)C1c1ccc(F)cc1 (centres unmarked)	9.16%
CCC(C)NC(=O)COC(=O)c1oc2ccccc2c1CSc1ccc(Cl)cc1 (centres unmarked)	-14.5%
COc1ccc(C(=O)/C=C/c2cc(OC)c(O)c(OC)c2)c(F)c1	-52.3%
C=CCOC(=O)C1=C[C@@H](c2ccccc2)[C@H](CCCO)[C@@H](OCC)O1	-9.65%
Cc1ccc(-c2noc(CN(C)C(=O)Nc3ccc(F)cc3)n2)cc1	17.2%
CCN(CC)CCOCCOC(=O)C(CC)(CC)c1ccccc1	-9.35%
CCCCc1nnc(NC(=O)C(C)Sc2nc(O)c(Cc3ccccc3)c(=O)[nH]2)s1 (centres unmarked)	8.89%
COc1cc2cnncc2cc1OC	1.01%
COC(=O)c1ccc(-n2c(CCC(=O)O)ccc2-c2ccc(C)cc2)cc1	2.4%

SMILES	hERG current change (%, negative = inhibition) at 10uM
Cc1ccccc1CSc1nnc(NC(=O)Cc2cccs2)s1	-7.3%
CCCSc1nnc(Nc2ccccc2C)s1	-15.9%
N#Cc1ccccc1OCCN1C(=O)c2ccccc2C1=O	2.76%
Cc1cc2c3c(ccc(C)c3n1)N=CN2c1ccccc1	-38.8%
COc1ccc(Cl)cc1C(=O)Nc1ccc2c(c1)OCO2	-17%
CCOC(=O)Cn1c(=NC(=O)c2cc(-c3cccs3)nc3ccccc23)sc2cc(S(N)(=O)=O)ccc21	23.4%
COc1ccc(NC(=O)CN(c2ccccc2)S(=O)(=O)c2ccccc2)c(OC)c1	-19.3%
COc1ccc(C(=O)N2N=C(c3cccc(NS(C)(=O)=O)c3)CC2c2cccs2)cc1 (centres unmarked)	-30.6%
CCc1ccccc1NC(=O)c1ccc(NS(C)(=O)=O)cc1	-42.1%
CCOC(=O)C1CCN(C(=O)CCCn2nc(C)c3c(C)n(-c4ccc(C)cc4)nc3c2=O)CC1	-25.9%
CCOc1ccccc1N(C)C(=O)CCS(=O)(=O)c1ccc2c(c1)NC(=O)C(C)S2 (centres unmarked)	3.85%
CN(C)CCNC(=O)c1cc2c(s1)-c1ccc(Cl)cc1SC2	-81.1%
C=CCn1c(=O)c2ccccc2n2c(SCc3csc(-c4ccccc4)n3)nnc12	-16.4%
Cc1ccc(Cl)cc1NC(=O)c1cccc(OC(F)F)c1	-12.3%
CC(=O)c1ccc(NC(=O)c2ccc(CNc3c(N4CCOCC4)c(=O)c3=O)cc2)cc1	-0.262%
COCC1CCN(Cc2cn[nH]c2-c2cc(OC)c(OC)c(OC)c2)CC1	-38.1%
O=C(O)c1cc([N+](=O)[O-])c(NCCC2=CCCCC2)c([N+](=O)[O-])c1	28.6%
CCOc1ccc(N(CC(=O)Nc2ccc(C)c(Cl)c2)S(C)(=O)=O)cc1	2.01%
